# Data taken from the BET-seq Pho4 binding data (Le et al. 2018).
# The other results are listed elsewhere or left out. These are noisy estimates, calculated here from bound and input reads.
# Target: T1, Pho4 (S. cerevisiae) (UniProt P07270)
# T1 sequence: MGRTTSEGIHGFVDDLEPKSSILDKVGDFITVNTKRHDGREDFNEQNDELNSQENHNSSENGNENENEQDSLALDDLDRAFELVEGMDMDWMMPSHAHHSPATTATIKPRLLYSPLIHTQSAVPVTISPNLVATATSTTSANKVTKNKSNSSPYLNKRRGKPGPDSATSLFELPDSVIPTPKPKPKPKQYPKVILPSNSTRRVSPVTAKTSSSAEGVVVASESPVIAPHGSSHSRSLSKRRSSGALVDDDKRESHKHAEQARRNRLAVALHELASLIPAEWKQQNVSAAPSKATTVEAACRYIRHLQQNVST
# Assay: relative binding free energy (BET-seq); higher = weaker binding
# Details: reference: library average
row,Sequence,relative binding free energy
1,ACGGTCACGTGGTGAA,-0.01 kcal/mol
2,TTAGGCACGTGAATGG,0.16 kcal/mol
3,GCTAGCACGTGGGAGT,0 kcal/mol
4,CGCTTCACGTGGGGGG,0.04 kcal/mol
5,TTGGCCACGTGATGAG,0.06 kcal/mol
6,ATGATCACGTGTGGAA,0.11 kcal/mol
7,GTTAACACGTGGTACG,0.01 kcal/mol
8,GGTGTCACGTGACAGA,0.35 kcal/mol
9,TGGCGCACGTGGGATC,-0.08 kcal/mol
10,GGCTTCACGTGTTTTT,0.41 kcal/mol
11,ATCTGCACGTGATGGT,-0.03 kcal/mol
12,GGGGCCACGTGTTGTG,-0.08 kcal/mol
13,CTTTCCACGTGTTGGG,0.19 kcal/mol
14,TATTACACGTGGTTAG,0.04 kcal/mol
15,TGTGTCACGTGGTACT,0 kcal/mol
16,ATCTGCACGTGAGTTG,0.2 kcal/mol
17,AAAGGCACGTGGAGGC,-0.02 kcal/mol
18,GTTGGCACGTGAATGC,0.16 kcal/mol
19,GTAGTCACGTGTTGAA,0.14 kcal/mol
20,TGTTTCACGTGTGAAG,0.37 kcal/mol
21,TATTGCACGTGAACGT,-0.01 kcal/mol
22,ACTGGCACGTGGTGGA,-0.1 kcal/mol
23,GGGTTCACGTGAGAGG,0.5 kcal/mol

row,Sequence,relative binding free energy
1,TTAGGCACGTGGGAGA,-0.17 kcal/mol
2,AACGACACGTGGGGTA,0.02 kcal/mol
3,TTCGTCACGTGTTATT,0.06 kcal/mol
4,TAAGGCACGTGTTAGT,-0.1 kcal/mol
5,GTATTCACGTGTCGCT,0.27 kcal/mol
6,CGTATCACGTGGAGCG,0.05 kcal/mol
7,ATTCACACGTGGGCGG,-0.12 kcal/mol
8,GTTATCACGTGTGAAT,0.36 kcal/mol
9,ATTGTCACGTGTATAC,0.03 kcal/mol
10,AAGGGCACGTGTGTCT,-0.1 kcal/mol
11,GGAATCACGTGCGGGC,0.16 kcal/mol
12,GAGTGCACGTGTAGGG,0.05 kcal/mol
13,TCGGGCACGTGTCGGT,0.05 kcal/mol
14,TAGAGCACGTGAGGTT,0.13 kcal/mol
15,ATAGTCACGTGGTTAC,0.02 kcal/mol
16,GGTCTCACGTGGTAGG,0.13 kcal/mol
17,CGTGTCACGTGAGGGT,0.24 kcal/mol
18,TAATTCACGTGAGCTT,0.25 kcal/mol
19,GACGTCACGTGGATTG,0.27 kcal/mol
20,TGGTACACGTGTACAG,0.02 kcal/mol
21,ATGGGCACGTGGATGC,-0.09 kcal/mol
22,GGGTGCACGTGCAGGT,-0.05 kcal/mol
23,GGATTCACGTGTAAGC,0.46 kcal/mol

row,Sequence,relative binding free energy
1,CTGGTCACGTGTTAAT,-0.03 kcal/mol
2,GTTTTCACGTGAGATA,0.43 kcal/mol
3,ATCTTCACGTGAGTTG,0.23 kcal/mol
4,GGTGGCACGTGGCGTT,-0.05 kcal/mol
5,ACGTTCACGTGTTTAG,0.14 kcal/mol
6,AGATTCACGTGAGGGA,0.35 kcal/mol
7,TGTTACACGTGGCGAT,-0.08 kcal/mol
8,TGTGTCACGTGCGAGA,0.03 kcal/mol
9,CTGGTCACGTGCTTAG,0.11 kcal/mol
10,GGGTCCACGTGGGCAG,-0.13 kcal/mol
11,AGTTACACGTGGGGTC,-0.01 kcal/mol
12,ATGTGCACGTGCATAT,-0.14 kcal/mol
13,CTTGACACGTGTGGGC,0.18 kcal/mol
14,GTGCGCACGTGTCGGG,-0.11 kcal/mol
15,GGAGGCACGTGTGGCT,0.01 kcal/mol
16,AGATTCACGTGAGGGT,0.35 kcal/mol
17,GTAGTCACGTGATCTT,0.22 kcal/mol
18,GTATTCACGTGGCATT,0.07 kcal/mol
19,TATTGCACGTGGGTTG,-0.12 kcal/mol
20,TAGCTCACGTGTGCGT,0.14 kcal/mol
21,TGACGCACGTGAATGG,0.22 kcal/mol
22,AGGATCACGTGTAGGG,0.21 kcal/mol
23,AGGAACACGTGTGATT,0.1 kcal/mol

row,Sequence,relative binding free energy
1,CTTTGCACGTGGCTGG,-0.13 kcal/mol
2,TTTTCCACGTGTGCGG,0.07 kcal/mol
3,GTTATCACGTGGCGTG,0.07 kcal/mol
4,AATGACACGTGTTGTA,0.11 kcal/mol
5,TGAGTCACGTGGTTGA,0.06 kcal/mol
6,TCTAACACGTGTTTTG,-0.1 kcal/mol
7,TATGACACGTGATTAT,0.06 kcal/mol
8,TGAGTCACGTGAGTTG,0.31 kcal/mol
9,GATGGCACGTGTATAT,-0.11 kcal/mol
10,TAGGTCACGTGTAGGT,0.13 kcal/mol
11,ATGAGCACGTGTGCGG,-0.24 kcal/mol
12,GTGGCCACGTGGCTTT,-0.04 kcal/mol
13,TGAATCACGTGATGAG,0.27 kcal/mol
14,AATTGCACGTGGGCGT,-0.2 kcal/mol
15,GCGGCCACGTGGGTTT,-0.08 kcal/mol
16,GTGCACACGTGTTGTA,0.02 kcal/mol
17,TTTCTCACGTGAGATT,0.48 kcal/mol
18,GTGGGCACGTGTTCTA,-0.17 kcal/mol
19,GTGGACACGTGTGTGG,0.03 kcal/mol
20,TGGATCACGTGTAGCA,0.21 kcal/mol
21,TGTATCACGTGTGATT,0.21 kcal/mol
22,AGTGTCACGTGAATGG,0.34 kcal/mol
23,GTAAGCACGTGTGGGG,0.04 kcal/mol

row,Sequence,relative binding free energy
1,TATGGCACGTGCGGAT,-0.11 kcal/mol
2,GTATTCACGTGGAGCG,0.19 kcal/mol
3,ATGTGCACGTGGTTGG,-0.05 kcal/mol
4,GGGTGCACGTGCGCGC,-0.15 kcal/mol
5,TGTAACACGTGACGGG,0.08 kcal/mol
6,TTTAACACGTGGGTGG,-0.14 kcal/mol
7,GTGGACACGTGTGGAC,0.07 kcal/mol
8,TAATACACGTGGGTGA,-0.16 kcal/mol
9,GGTCACACGTGATTGG,0.31 kcal/mol
10,GTCAGCACGTGTAGGG,0.02 kcal/mol
11,TTGGGCACGTGAGTCT,0.18 kcal/mol
12,TGTGTCACGTGCATAT,0.21 kcal/mol
13,CGTGCCACGTGGGATT,-0.11 kcal/mol
14,TTTGGCACGTGCAGGG,-0.07 kcal/mol
15,TCTTACACGTGGGGTA,-0.07 kcal/mol
16,TGTGTCACGTGCTATT,-0.01 kcal/mol
17,TTGGCCACGTGTTGTT,-0.04 kcal/mol
18,CGTATCACGTGAAGTG,0.25 kcal/mol
19,GTTTTCACGTGAAGAA,0.29 kcal/mol
20,GGTGGCACGTGAGACT,0.08 kcal/mol
21,ATGAGCACGTGAGGTA,0.13 kcal/mol
22,GATGACACGTGTTATT,0.05 kcal/mol
23,ATATGCACGTGTTGGG,-0.07 kcal/mol
